According to the RNAGym collection of RNA variant scans (doi:10.1073/pnas.2313332121):
Variants at the floor of the assay are shown more often than the library holds them.

B1: TPR 5TU (parent)
chain: GGAUCUUCUCGAUCUAACAAAAAAGACAAAUCUGCCACAAAGCUUGAGAGCAUCUUCGGAUGCAGAGGCGGCAGCCUUCGGUGGCGCGAUAGCGCCAACGUUCUCAACUAUGACACGCAAAACGCGUGCUCCGUUGAAUGGAGUUUAUCAUG

Variants of: B1
Assay: polymerase ribozyme fitness, log enrichment relative to wild type (log ratio); higher = more active; in vitro selection for triplet polymerase activity
Procedure, shortened: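 Only genotypes with ≥10 input reads and ≥1 read per output were kept after Illumina sequencing of input and output libraries. These libraries were PCR-built, transcribed mutants of each subunit of a heterodimeric triplet polymerase ribozyme, each put through one triplicate in vitro selection round with frozen incubation at −7 °C, gel excision of extended constructs, streptavidin-bead capture and RT-PCR. Fitness is a logarithmic ratio of genotype enrichment to wild-type enrichment, from inverse-variance-weighted replicate averages, with the logarithm in base 2.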

| Variant | polymerase ribozyme fitness (log ratio) |
| --- | --- |
| C14U A91U | ≤ -4.2 |
| C14U A91G | -3.98 |
| C14G U82A G84A C87U C118G | -3.78 |
| C14U A20C A39G A52G U56A C96A A121U | -4 |
| C14U A24G A30G C36U C54U C96A U151A | ≤ -4.2 |
| C14G U55G C57U G86C C125G A137U | ≤ -4.2 |
| C14U C54A C57U G58C C75A C85A A119C C132A | ≤ -4.2 |
| C14G U44G C75U C85A U90C C96G A138U | ≤ -4.2 |
| C14G U102A | -4.05 |
| C14U C93G | ≤ -4.2 |
| C14U A19C A28U A29C G86C C96U C118G | ≤ -4.2 |
| C14G U33C A37C A49C G59A C85U A91C | ≤ -4.2 |
| C14U C54U C69U C85A A110C G143A | ≤ -4.2 |
| C14U A21C A49C C95U A107G G140A | ≤ -4.2 |
| C14U A41U G58A A60U C93G | ≤ -4.2 |
| C14U C27U U90C A91U C116G | -3.77 |
| C14U G152C | ≤ -4.2 |
| C14U A22U G34A A52G G58A G86A G94C U148A G152C | ≤ -4.2 |
| C14U A26U C87U G88U | ≤ -4.2 |
| C14U C18A A20C C93A G136A A142C | -2.57 |
| C14U G143A | -1.26 |

| Variant | polymerase ribozyme fitness (log ratio) |
| --- | --- |
| C14U C36U U56A G81U C99A C116A U130G A137U | ≤ -4.2 |
| C14U C79G G84U C132U | ≤ -4.2 |
| C14U A17C C54U U135G | ≤ -4.2 |
| C14G U45A A52U G68C C96A G126C | ≤ -4.2 |
| C14U A40G G71A A138U | ≤ -4.2 |
| C14U C38U C51U G74U C87G A121G G143C | ≤ -4.2 |
| C14U C54A G83U C108U G133U U135C | ≤ -4.2 |
| C14U G67A G88A G136U | ≤ -4.2 |
| C14U A21U G50C U56A A66C A91U G143C | ≤ -4.2 |
| C14G U55A G84A G141A | -3.7 |
| C14G U55G G74C U148C | ≤ -4.2 |
| C14U U31A U33G U56G C76A C95A | ≤ -4.2 |
| C14U A52C G86U C87U A113U G141C U148G | ≤ -4.2 |
| C14U G25A G70C C72U G84A C93G C123G G140U | ≤ -4.2 |
| C14U C18G U56G C57G G67C U109G | ≤ -4.2 |
| C14U U31A G48C G67C A91U | ≤ -4.2 |
| C14U C116G G128A C129G U135G | ≤ -4.2 |
| C14U A40C C54U C63A C95U A106C | ≤ -4.2 |
| C14G U53G C57U A91G A122U A142C U144A | ≤ -4.2 |
| C14U A16C C85U A106C G141A C149A | ≤ -4.2 |
| C14G U77A G94U U151G | ≤ -4.2 |

| Variant | polymerase ribozyme fitness (log ratio) |
| --- | --- |
| C14U A21C C27U C36A G62U G80C G86A A137C | -3.96 |
| C14U G50A G58C A121C | -3.27 |
| C14U G25U A37U U55A C85A | ≤ -4.2 |
| C14U A23U U78G C85G U151A | ≤ -4.2 |
| C14U C76U C96G C131A | ≤ -4.2 |
| C14U C27G U82A C96G A138G U146G A147G | ≤ -4.2 |
| C14G U33C G84U G94A | -4.16 |
| C14U C51A A52G U56A C72G | ≤ -4.2 |
| C14U A28U C51U U111G | ≤ -4.2 |
| C14U A21G U31G U33G U55A A73G U78G C96U | ≤ -4.2 |
| C14U A40G G42C C93G C95G A97U | ≤ -4.2 |
| C14U A19G C38U U61A C76A C85A U139C A150C | ≤ -4.2 |
| C14U G42U G50C U56A C57U C75G G84U | ≤ -4.2 |
| C14U C35U G84U C131U | -3.79 |
| C14U A66C C85A G94A U145G | ≤ -4.2 |
| C14U C57A | -0.738 |
| C14U G34A U44G C57U C79A C114U G133C G140C | ≤ -4.2 |
| C14U G25U C43U G58U G83C A97C G143U | ≤ -4.2 |
| C14U C43G A52C U53C C87G A91U | ≤ -4.2 |
| C14U C76A C85U | -2.67 |
| C14G U44G C63G U111C A113C U135C | ≤ -4.2 |

| Variant | polymerase ribozyme fitness (log ratio) |
| --- | --- |
| C14U A41G U78G A137C | ≤ -4.2 |
| C14U C72U C76U C96A G112U | ≤ -4.2 |
| C14U C87U | -2.18 |
| C14U C87A | ≤ -4.2 |
| C14U G83C A106C | -2.96 |
| C14G U55A C96U | -3.27 |
| C14U U15C C36A U53A A73U C95A A110U A113G C125G | ≤ -4.2 |
| C14G U44G | ≤ -4.2 |
| C14U C18G C57U G92U A110G | ≤ -4.2 |
| C14G U90G C99U G136A | ≤ -4.2 |
| C14U G42A C87U G136A | ≤ -4.2 |
| C14U A37C A52C C75U C96U C116A | ≤ -4.2 |
| C14U C54U C87A A89G C96U A121U A142C | ≤ -4.2 |
| C14U C87U C99U U101G A137C U145G | ≤ -4.2 |
| C14U G50C A97U A98U A137G | ≤ -4.2 |
| C14U A39C G71C C85U A97G | ≤ -4.2 |
| C14U C54U C63G G80A C87A G88U C99A G136A G143A | ≤ -4.2 |
| C14U C36G A40C G68C C87G G94U C95U A106G G140C U148A | ≤ -4.2 |
| C14U A22G A30U G81A A91C G94U C108G | ≤ -4.2 |
| C14U C36U G71A G83A C118G | ≤ -4.2 |
| C14U U15G C38U C76U U82G C96A A106G U145G A150U | ≤ -4.2 |
